Laboratory results published in the supplement of paper PMC12645437, “Orthogonal IMiD-Degron Pairs Induce Selective Protein Degradation in Cells” (ACS Chemical Biology, 2025).
The other results are listed elsewhere or left out.

molecular target: no compound (DMSO); assay: log2 fold change of degron read counts, EGFP-low vs EGFP+ sorted cells; higher = lower degron-EGFP level without compound (poor expression or instability); conditions: compound: DMSO control; 18 h
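Also: jurkat cells carrying a lentiviral library of mutant zinc finger degrons fused to EGFP plus mCherry, mCherry+ cells FACS sorted, degron abundance counted by next-generation sequencing.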

| Sequence | log2 fold change of degron read counts |
| --- | --- |
| FLCPICGRHFTQKGNLLRHIKL | 0.0419 |
| FFCNQCGHSFTQKGNLLRHIKL | 0.344 |
| FYCPICGHLFTQKGNLLRHIKL | 0.714 |
| FGCNICGAYFTQKGNLLRHIKL | 0.719 |
| FFCEICGHLFTQKGNLLRHIKL | 0.5 |
| FLCPICGHYFTQKGNLLRHIKL | 0.213 |
| FACDICGAAFTQKGNLLRHIKL | -1.63 |
| FWCNQCGREFTQKGNLLRHIKL | 0.1 |
| FHCPQCGALFTQKGNLLRHIKL | -0.308 |
| FCCSVCGHYFTQKGNLLRHIKL | 0.429 |
| FWCEICGAAFTQKGNLLRHIKL | -1.05 |
| FQCNICGADFTQKGNLLRHIKL | -0.71 |
| FWCEICGRSFTQKGNLLRHIKL | -0.937 |
| FLCDQCGAYFTQKGNLLRHIKL | -0.413 |
| LACPICGFICTQKGNLLRHIKL | 1.28 |
| FGCDICGAQFTQKGNLLRHIKL | -1.3 |
| FCCNQCGASFTQKGNLLRHIKL | -0.195 |
| LICPICGFYCTQKGNLLRHIKL | 1.9 |
| FSCEICGARFTQKGNLLRHIKL | -1.01 |
| FDCNQCGHEFTQKGNLLRHIKL | 0.136 |
| LRCPICGFKCTQKGNLLRHIKL | 0.971 |
| LLCEICGFKCTQKGNLLRHIKL | 0.168 |
| FTCPVCGAWFTQKGNLLRHIKL | 0.486 |
| FWCNQCGHCFTQKGNLLRHIKL | 1.16 |
| FVCPICGRCFTQKGNLLRHIKL | -0.0355 |

| Sequence | log2 fold change of degron read counts |
| --- | --- |
| FKCEICGHPFTQKGNLLRHIKL | -0.322 |
| FRCDQCGAHFTQKGNLLRHIKL | -0.377 |
| FQCPQCGAEFTQKGNLLRHIKL | -1.66 |
| FQCPICGRDFTQKGNLLRHIKL | -0.943 |
| FHCDICGAEFTQKGNLLRHIKL | -1.62 |
| LMCNQCGFNCTQKGNLLRHIKL | 0.226 |
| FMCEICGAVFTQKGNLLRHIKL | -0.834 |
| FWCPVCGANFTQKGNLLRHIKL | 0.409 |
| FFCSVCGHFFTQKGNLLRHIKL | 1.48 |
| FRCNQCGAVFTQKGNLLRHIKL | 0.0794 |
| FHCNQCGRRFTQKGNLLRHIKL | 0.407 |
| FSCNVCGAMFTQKGNLLRHIKL | -0.643 |
| FSCDVCGADFTQKGNLLRHIKL | -1.39 |
| FSCDQCGAAFTQKGNLLRHIKL | -2.05 |
| FRCNVCGAWFTQKGNLLRHIKL | 0.306 |
| FKCDQCGANFTQKGNLLRHIKL | -2.53 |
| FCCNQCGHTFTQKGNLLRHIKL | -0.535 |
| LDCEICGFYCTQKGNLLRHIKL | 1.43 |
| FMCEQCGAAFTQKGNLLRHIKL | -2.56 |
| FLCPICGASFTQKGNLLRHIKL | -0.616 |
| FGCEICGRNFTQKGNLLRHIKL | -1.61 |
| FTCEICGADFTQKGNLLRHIKL | -1.84 |
| FTCSVCGHRFTQKGNLLRHIKL | -0.243 |
| FDCPICGRGFTQKGNLLRHIKL | -0.612 |
| FHCEICGHIFTQKGNLLRHIKL | 0.24 |
